According to PubChem BioAssay AID1645882 (National Center for Advancing Translational Sciences (NCATS), 2021):
Hit rate of the full screen: of about 16,000 compounds, about 120 (0.75%) were called active. Roughly 4% stayed inconclusive and do not appear here. Calls follow the shape of the dose curve; as a rule, active = well fitted inhibition curve with a large enough effect; inconclusive = small, poorly fitted or top-dose-only effect; inactive = no such curve, though single readings can be large or run the other way. Some of the results follow.

These compounds were tested against Rap guanine nucleotide exchange factor 3 (Homo sapiens) (UniProt O95398) (assay: Validation qHTS for antagonist of cAMP-regulated guanine nucleotide exchange factor 3 (EPAC1)). Conditions: EPAC1 Rap1B-BODIPY-GDP exchange, fluorescence; series mostly up to 150 µM; activity change, negative = inhibition: at the top concentration.
Chain of UniProt O95398 (O95398 whole entry, looked up): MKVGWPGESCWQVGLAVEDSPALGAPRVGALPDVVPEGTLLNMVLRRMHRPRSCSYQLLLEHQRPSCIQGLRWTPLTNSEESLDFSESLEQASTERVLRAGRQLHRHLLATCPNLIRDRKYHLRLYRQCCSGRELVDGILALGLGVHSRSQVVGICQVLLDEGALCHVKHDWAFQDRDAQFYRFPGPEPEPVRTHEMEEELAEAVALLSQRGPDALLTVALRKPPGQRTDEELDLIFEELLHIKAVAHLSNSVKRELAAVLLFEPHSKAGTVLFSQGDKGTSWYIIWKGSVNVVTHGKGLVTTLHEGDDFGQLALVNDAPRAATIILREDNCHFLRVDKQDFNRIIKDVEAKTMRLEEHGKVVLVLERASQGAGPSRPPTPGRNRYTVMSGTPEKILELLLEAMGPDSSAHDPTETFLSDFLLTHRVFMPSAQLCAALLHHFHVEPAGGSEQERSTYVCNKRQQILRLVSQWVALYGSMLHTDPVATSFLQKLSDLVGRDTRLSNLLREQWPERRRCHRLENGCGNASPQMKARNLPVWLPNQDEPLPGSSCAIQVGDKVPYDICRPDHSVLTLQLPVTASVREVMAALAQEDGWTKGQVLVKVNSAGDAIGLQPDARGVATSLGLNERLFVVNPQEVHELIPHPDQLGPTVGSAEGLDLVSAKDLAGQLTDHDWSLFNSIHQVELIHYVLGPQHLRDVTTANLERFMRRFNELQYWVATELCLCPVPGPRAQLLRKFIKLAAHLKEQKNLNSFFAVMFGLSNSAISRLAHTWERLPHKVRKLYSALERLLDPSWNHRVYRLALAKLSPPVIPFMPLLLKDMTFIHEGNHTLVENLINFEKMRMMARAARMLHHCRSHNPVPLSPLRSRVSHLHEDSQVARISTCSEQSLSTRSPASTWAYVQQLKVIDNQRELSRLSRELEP
Summary of the method: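 EPAC1 (100 nM) mixed with 250 nM RAP1B-BODIPY-GDP and 50 uM GDP; compounds in concentration series, 5 min at room temperature. Fluorescence (ex 480/em 540 nm) read every 5 min for 30 min; normalized to ATA control and DMSO.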
Also: nearly all actives have a fitted effect of over 75% in size.
Potency is read from the fitted curve at half-maximal effect.

| Structure (SMILES) | activity change, negative = inhibition | Potency |
| --- | --- | --- |
| CCC(C)(C)c1ccc(CC(C)CN2C[C@@H](C)O[C@@H](C)C2)cc1 (stereo not given in full) | inactive: -5.7% | – |
| COc1cccc(CN2C(=O)NC(C)(C3CCN(Cc4cccc(O)c4)CC3)C2=O)c1OC (stereo not given) | inactive: 16.3% | – |
| CC(C)Cc1cc(C(=O)NCC2Cc3cc(F)cc(-c4ccccn4)c3O2)no1 (stereo not given) | inactive: 5.28% | – |
| Cc1cnc(CNC(=O)c2c3n(c(C)cc2=O)-c2ccccc2SC(c2ccsc2)C3)cn1 (stereo not given) | inactive: 7.63% | – |
| CNC[C@@H]1CC[C@@H](N)[C@@H](O[C@H]2[C@H](O)[C@@H](O[C@H]3OC[C@](C)(O)[C@H](NC)[C@H]3O)[C@H](N)C[C@@H]2N)O1 | inactive: 29.7% | – |
| CN1CCN(c2nc(-c3ccoc3)nc3ccccc23)CC1 | inactive: 2.57% | – |
| COc1ccccc1C1CN(Cc2c(C)nc3sccn23)Cc2ccccc2O1 (stereo not given) | inactive: 7.23% | – |
| CCOC(=O)c1cc(-c2ccccc2)nc2ccc(C)cc12 | inactive: 6.7% | – |
| Cc1csc[n+]1CCC1CCCCC1 | inactive: 7.35% | – |
| O=c1[nH]c(=O)n([C@H]2C[C@H](O)[C@@H](CO)O2)cc1/C=C/Br | inactive: 6.24% | – |
| CN1CCN(c2ncc3nc(-c4cc(F)cc(F)c4)c(=O)n(C4CC4)c3n2)CC1 | inactive: 5.87% | – |
| COc1cccc(C(=O)O[C@H]2[C@H](Cc3ccccc3)NS(=O)(=O)[C@H]3C[C@@H]4C=C[C@]23O4)c1 | inactive: 12.4% | – |
| COc1cc(=O)n2c(c1C(=O)N(C)Cc1cscn1)CCN(Cc1ccc3c(c1)OCCO3)CC2 | inactive: 7.61% | – |
| CNC(=O)[C@@H]1C[C@H](NC2CCCCCCC2)CN1Cc1cccc(OC)c1OC | inactive: 9.84% | – |
| Cc1cc(=O)c(C(=O)NCCCc2ccncc2)c2n1-c1ccccc1SC(c1cccs1)C2 (stereo not given) | inactive: 1.95% | – |
| Cn1cccc1C(=O)N1CCC2(CCN(Cc3nccs3)CC2)CC1 | inactive: 12.9% | – |
| C=CC(=O)c1ccc(CCCCCC)cc1 | inactive: 41.7% [at 75.8 µM] | – |
| COCCn1c(=O)c(-c2cccs2)nc2cnc(Nc3ccccc3)nc21 | inactive: 171% | – |
| Cc1nc2cnc(N(C)C)nc2n(CCC#N)c1=O | inactive: 0.853% | – |
| Cc1ccc(N)cc1O | inactive: 13.9% [at 320 µM] | – |
| COc1ccc(NC(=O)N2CC[C@@]3(CCCN(C(=O)c4cccn4C)C3)C2)cc1 | inactive: 30.1% | – |
| Cc1cc(C)n(-c2ccc(C(=O)NCC3Cc4cc(-c5cnccn5)ccc4O3)cc2)n1 (stereo not given) | inactive: -1.63% | – |
| COc1ccc2c(c1)OCC(Cc1ccc(OC)c(OC)c1)C2=O (stereo not given) | inactive: -16.4% | – |
| N#CCCn1c(=O)c(-c2ccccc2)nc2cnc(Oc3ccccc3)nc21 | inactive: 8.97% | – |
| Cc1oc(-c2ccccc2NC(=O)C2CCC2)nc1CNC(=O)c1ccc2ccccc2c1 | inactive: -11.4% | – |

| Structure (SMILES) | activity change, negative = inhibition | Potency |
| --- | --- | --- |
| O=c1cc(O)cc(/C=C/c2ccc(O)c(O)c2)o1 | inactive: 11.1% [at 75.8 µM] | – |
| Cc1cc(C(=O)Nc2cccc(-c3nc(CNC(=O)c4cnccn4)c(C)o3)c2)c(C)o1 | inactive: 12.6% | – |
| Clc1ccc(-c2nc3sccn3c2/C=N/OCc2ccc(Cl)c(Cl)c2)cc1 | inactive | – |
| COc1ccc(C(=O)N2CCC3(CCCN(Cc4ccccc4)C3)CC2)cc1 | inactive: 1.37% | – |
| COC(=O)N1CCC[C@@]2(CCN(c3ncccn3)C2)C1 | inactive: 18.4% | – |
| CCN1CCC[C@H]1CNC(=O)c1cc(S(N)(=O)=O)ccc1OC | inactive | – |
| Cn1c(=O)c(-c2ccc(Cl)cc2)nc2cnc(N3CCNCC3)nc21 | inactive: 8.74% | – |
| CCCCCCCCCCCCC(C(=O)O)C(C)C(=O)O (stereo not given) | inactive: 1.9% | – |
| Nc1ccc(S(N)(=O)=O)cc1 | inactive | – |
| Cc1noc(C)c1-c1nc(N(C)Cc2ccco2)c2ccccc2n1 | inactive: -29.5% | – |
| CCOC(=O)N1CCN(Cc2ccc3c(c2)CN(C(=O)c2cc(-c4ccccc4)on2)CCO3)CC1 | inactive: -13.6% | – |
| CC1CCN(CCCC(=O)c2ccc(F)cc2)CC1 | inactive: 2.59% | – |
| O=C(Nc1ccccc1)N1CC2(CCN(C(=O)c3cc(C(F)(F)F)cc(C(F)(F)F)c3)CC2)C1 | inactive: -4.84% | – |
| COC(=O)C1CCN(Cc2ccc3c(c2)CN(C(=O)c2cc4ccccc4n2C)CCO3)CC1 | inactive: 11.1% | – |
| O=S(=O)(NCCCCCCc1ccccc1)c1cccc2c(Cl)cccc12 | inactive: -21.7% | – |
| CCOc1nc2cccc(C(=O)OC(C)OC(=O)OC3CCCCC3)c2n1Cc1ccc(-c2ccccc2-c2nn[nH]n2)cc1 (stereo not given) | – | active: 89.1 µM |
| CN(C)Cc1ccccc1-c1ccc2ncnc(NC3CC3)c2c1 | inactive: -24.5% | – |
| CC(=O)OC[C@@]12C(=O)[C@@H](O)[C@@H](C)[C@]3(C[C@@H](c4ccoc4)O[C@@H]3OC(C)=O)[C@H]1CCC[C@]21CO1 | inactive: 23.4% | – |
| O=C(OC1Cc2c(O)cc(O)cc2OC1c1cc(O)c(O)c(O)c1-c1c(C2Oc3cc(O)cc(O)c3CC2OC(=O)c2cc(O)c(O)c(O)c2)cc(O)c(O)c1O)c1cc(O)c(O)c(O)c1 (stereo not given) | – | active: 63.1 µM |
| C[C@H](N)CCCP(=O)(O)O | inactive: -0.925% | – |
| COc1cccc(Cn2c(=O)c(-c3ccc(F)cc3)nc3cnc(OC)nc32)c1 | inactive: 8.18% | – |
| CCCC(=O)O[C@]1(C(=O)CCl)[C@H](C)C[C@@H]2[C@H]3CCC4=CC(=O)C=C[C@]4(C)[C@@]3(F)C(=O)C[C@@]21C | inactive: 3.69% | – |
| O=C(c1ccco1)N1CCC[C@@]2(CCN(c3ccccn3)C2)C1 | inactive: 12.3% | – |
| CC(O)(C(=O)Nc1ccc(S(=O)(=O)c2ccccc2)cc1)C(F)(F)F (stereo not given) | inactive | – |
| O=C(C1CC12CCN(Cc1cccc3cccnc13)CC2)N1CCN(Cc2cccs2)CC1 (stereo not given) | inactive: -7.91% | – |

| Structure (SMILES) | activity change, negative = inhibition | Potency |
| --- | --- | --- |
| CC(C)CN1CCC(=O)N(CCC#N)CC1 | inactive: 23.8% | – |
| O=c1c(-c2cccs2)nc2cnc(Nc3ccccc3)nc2n1C[C@H]1CCCO1 | inactive: 50.1% | – |
| COc1cc(Br)c(C[N+]2(CCOCCC3CCC4CC3C4(C)C)CCOCC2)cc1OC (stereo not given) | inactive: 23% | – |
| CC1=C(C(=O)OCCN(Cc2ccccc2)c2ccccc2)C(c2cccc([N+](=O)[O-])c2)C(P2(=O)OCC(C)(C)CO2)=C(C)N1 (stereo not given) | inactive: 8.54% | – |
| Cc1c(C(=O)NC(C)(C)C)sc2ncnc(NCCN(C)C)c12 | inactive: -8.82% | – |
| O=C1CCN(Cc2ccccc2)CCN1[C@H](CO)Cc1ccccc1 | inactive | – |
| O=C(c1csnn1)N1CCC2(CC1)CCN(C(c1ccccc1)c1ccccc1)CC2 | inactive: 6.28% | – |
| CC(CCc1ccc(O)cc1)NCCc1ccc(O)c(O)c1 (stereo not given) | inactive | – |
| Cc1cnc(C)c(-c2cccc3c2OC(CNC(=O)c2cc(C)on2)C3)n1 (stereo not given) | inactive: 8.44% | – |
| c1ccc(Nc2ncnc3ccc(-c4ccoc4)cc23)cc1 | inactive: 7.72% | – |
| Cc1cn([C@H]2C[C@H](O)[C@@H](CO)O2)c(=O)[nH]c1=O | inactive | – |
| CC(C)NC(=O)N1CCC2(CC1)CCN(S(=O)(=O)c1ccccc1)CC2 | inactive: 6.22% | – |
| N[C@@H](Cn1cc(F)c(=O)[nH]c1=O)C(=O)O | inactive: -17.5% | – |
| O=C(O)/C=C/c1ccccc1 | inactive: 13.4% | – |
| CNc1cc(-c2ccccc2C(F)(F)F)ncn1 | inactive: 2.7% | – |
| Cc1c(C(=O)NCC(C)(C)N2CCOCC2)cnn1-c1ncc2c(n1)-c1ccccc1CC2 | inactive: -0.766% | – |
| COc1cccc(CN(C)C(=O)c2cnn(-c3ncc4c(n3)-c3ccccc3CCC4)c2C)c1 | inactive: -18.5% | – |
| CC12CCC(C1)C(C)(C)C2=O (stereo not given) | inactive: -4.09% | – |
| COc1ccccc1CN1CCC2(CC1)CCN(C(=O)c1ccco1)CC2 | inactive: 20.8% | – |
| COc1ncc2nc(C)c(=O)n(C[C@H]3CCCO3)c2n1 | inactive: 11.9% | – |
| COCCn1c(=O)c(-c2ccc(Cl)cc2)nc2cnc(N3CCNCC3)nc21 | inactive: 3.63% | – |
| O=C(O)CC/C=C\C[C@@H]1CO[C@H](c2ccccc2Cl)O[C@@H]1c1ccccc1O | inactive: 2.15% | – |
| Cc1cccc(CNc2ncncc2-c2cccnc2)c1 | inactive: -5.47% | – |
| Nc1nc2c(c(=O)[nH]1)N=C(CNc1ccc(C(=O)NC(CCC(=O)O)C(=O)O)cc1)CN2 (stereo not given) | inactive: 23.3% | – |
| O=C(NCCN1Cc2ccccc2OC(c2ccccc2F)C1)c1cncs1 (stereo not given) | inactive: 6.68% | – |

| Structure (SMILES) | activity change, negative = inhibition | Potency |
| --- | --- | --- |
| CN(C)c1ccc(-c2nc(N(C)C)c3ccccc3n2)cc1 | inactive: -8.45% | – |
| O=C(O)CCC/C=C\C[C@@H]1[C@@H](/C=C/[C@H](O)C2Cc3ccccc3C2)[C@@H](F)C[C@@H]1O | inactive: 3.98% [at 75.8 µM] | – |
| CC12CCC(C[N+](C)(CCC[N+](C)(C)C)C1)C2(C)C (stereo not given) | inactive: -3.27% | – |
| Cn1cc(-c2nc3cnc(Oc4ccccc4)nc3n(Cc3cccs3)c2=O)c2ccccc21 | inactive: 7.52% | – |
| CC1=C(C(=O)O)N2C(=O)[C@@H](NC(=O)[C@H](N)c3ccc(O)cc3)[C@H]2SC1 | inactive: 12.6% [at 75.8 µM] | – |
| CN1CCN(c2ncncc2-c2ccoc2)CC1 | inactive: 13.3% | – |
| NS(=O)(=O)c1cc2c(cc1Cl)NC(Cc1ccccc1)NS2(=O)=O (stereo not given) | inactive: 14% | – |
| CN(CC1(C)CCCO1)S(=O)(=O)c1ccc(Cl)c(S(N)(=O)=O)c1 (stereo not given) | inactive: 33.3% | – |
| CC(CCC(=O)O)C1CCC2C3CC[C@@H]4CCCC[C@@]4(C)C3CC[C@@]12C (stereo not given in full) | inactive: 7.33% | – |
| C[C@@H](O)[C@H]1C(=O)N2C(C(=O)O)=C(SCCN=CN)C[C@H]12 | inactive | – |
| O=S1(=O)CCO[C@H]2CCCC[C@@H]2N1Cc1ccccc1 | inactive: 6.18% | – |
| N#CC(=C(/N)Sc1ccccc1N)/C(C#N)=C(\N)Sc1ccccc1N | inactive | – |
| CN(C)C(=O)c1ccc(-c2nc(N(C)C)c3ccccc3n2)cc1 | inactive: 16.5% | – |
| COC(=O)N1CCC2(CC1)CN(c1ccccc1)C2 | inactive: 1.71% | – |
| OC1(c2ccc3c(c2)CN(Cc2ccccn2)CCO3)CCN(c2ccccc2F)CC1 | inactive: 0.821% | – |
| CN(C)Cc1ccccc1-c1cncnc1NCc1ccccc1 | inactive: 8.41% | – |
| Brc1ccccc1-c1ccccc1 | inactive: 36.8% [at 320 µM] | – |
| N#Cc1ccc(CN2CCCC3(CCN(C(=O)c4cccc(F)c4)CC3)C2)cc1 | inactive: 3.94% | – |
| O=C(C[n+]1cccc2cc(Cl)ccc21)c1ccc(I)cc1 | inactive: -17.6% | – |
| CC(C)C[C@@H](CO)N1CCN(Cc2ccc([N+](=O)[O-])cc2)CCC1=O | inactive: 2.45% | – |
| COc1cc(OC)c(CN2CCOc3ccc(CN4CCC(O)CC4)cc3C2)c(OC)c1 | inactive: 5.93% | – |
| CC(C)(Oc1ccc(C2CC2(Cl)Cl)cc1)C(=O)O (stereo not given) | inactive | – |
| COCCn1c(=O)c(-c2ccc(F)c(F)c2)nc2cncnc21 | inactive: -6.94% | – |
| CCCCC[C@H](O)/C=C/[C@@H]1[C@@H](CCCCCCC(=O)O)[C@@H](O)C[C@H]1O | inactive: 1.78% [at 15.3 µM] | – |
| Cc1cc(C(=O)NCCN2Cc3ccccc3OC(c3ccccc3F)C2)no1 (stereo not given) | inactive: 20% | – |
